Data on 2 compounds can be found in PMC5062570 (Nature Communications, 2016).

The target in assay [1] is PF-7802-labelled proteins in ARPE-19 cells (Homo sapiens, UniProt O95292). The conditions noted are these: VAPB Vesicle-associated membrane protein-associated protein B/C (O95292).
Assay [2] has as its target PF-7802-labelled proteins in ARPE-19 cells (Homo sapiens, UniProt P05783). To be noted: protein KRT18 Keratin, type I cytoskeletal 18 (P05783); one column per replicate.
The target of assay [3] is PF-7802-labelled proteins in ARPE-19 cells (Homo sapiens, UniProt P07477). To be noted: protein PRSS1 Trypsin-1, P07477.
The target of assay [4] is PF-7802-labelled proteins in ARPE-19 cells (Homo sapiens, UniProt P07900).
Assay [5] addresses PF-7802-labelled proteins in ARPE-19 cells (Homo sapiens, UniProt P08238).
Sequence of UniProt P08238 (P08238 whole entry): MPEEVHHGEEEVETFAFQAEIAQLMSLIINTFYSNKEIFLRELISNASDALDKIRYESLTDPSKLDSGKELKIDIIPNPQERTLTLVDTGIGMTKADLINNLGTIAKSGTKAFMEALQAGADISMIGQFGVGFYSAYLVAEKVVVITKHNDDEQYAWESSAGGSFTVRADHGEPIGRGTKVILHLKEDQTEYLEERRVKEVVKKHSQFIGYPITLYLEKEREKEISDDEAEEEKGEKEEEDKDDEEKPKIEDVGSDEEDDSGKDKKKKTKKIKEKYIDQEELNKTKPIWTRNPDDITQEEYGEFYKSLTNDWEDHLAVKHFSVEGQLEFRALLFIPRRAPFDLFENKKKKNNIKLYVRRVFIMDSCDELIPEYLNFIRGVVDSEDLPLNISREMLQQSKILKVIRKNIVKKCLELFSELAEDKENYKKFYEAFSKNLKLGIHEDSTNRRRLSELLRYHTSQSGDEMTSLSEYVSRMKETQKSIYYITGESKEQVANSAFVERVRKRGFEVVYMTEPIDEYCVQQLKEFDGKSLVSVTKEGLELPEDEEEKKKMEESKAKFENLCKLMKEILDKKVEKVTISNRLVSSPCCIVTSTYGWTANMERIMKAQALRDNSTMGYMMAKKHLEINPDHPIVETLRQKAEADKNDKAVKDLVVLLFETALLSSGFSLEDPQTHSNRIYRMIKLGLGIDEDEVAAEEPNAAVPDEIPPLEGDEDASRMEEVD
In assay [6] the target is PF-7802-labelled proteins in ARPE-19 cells (Homo sapiens, UniProt P0C0S5). To be noted: P0C0S5 H2AFZ Histone H2A.Z.
Assay [7] deals with PF-7802-labelled proteins in ARPE-19 cells (Homo sapiens, UniProt P23396). To be noted: protein RPS3 40S ribosomal protein S3, P23396.
For assay [8], the target named is PF-7802-labelled proteins in ARPE-19 cells (Homo sapiens, UniProt P47755). To be noted: protein CAPZA2 F-actin-capping protein subunit alpha-2 (P47755).
The target of assay [9] is PF-7802-labelled proteins in ARPE-19 cells (Homo sapiens, UniProt P49748).
Assay [10] concerns the target PF-7802-labelled proteins in ARPE-19 cells (Homo sapiens, UniProt P51659). To be noted: protein HSD17B4 Peroxisomal multifunctional enzyme type 2 (P51659); one column per replicate.
For assay [11], the target named is PF-7802-labelled proteins in ARPE-19 cells (Homo sapiens, UniProt Q00610).
Sequence of UniProt Q00610 (Q00610 whole entry): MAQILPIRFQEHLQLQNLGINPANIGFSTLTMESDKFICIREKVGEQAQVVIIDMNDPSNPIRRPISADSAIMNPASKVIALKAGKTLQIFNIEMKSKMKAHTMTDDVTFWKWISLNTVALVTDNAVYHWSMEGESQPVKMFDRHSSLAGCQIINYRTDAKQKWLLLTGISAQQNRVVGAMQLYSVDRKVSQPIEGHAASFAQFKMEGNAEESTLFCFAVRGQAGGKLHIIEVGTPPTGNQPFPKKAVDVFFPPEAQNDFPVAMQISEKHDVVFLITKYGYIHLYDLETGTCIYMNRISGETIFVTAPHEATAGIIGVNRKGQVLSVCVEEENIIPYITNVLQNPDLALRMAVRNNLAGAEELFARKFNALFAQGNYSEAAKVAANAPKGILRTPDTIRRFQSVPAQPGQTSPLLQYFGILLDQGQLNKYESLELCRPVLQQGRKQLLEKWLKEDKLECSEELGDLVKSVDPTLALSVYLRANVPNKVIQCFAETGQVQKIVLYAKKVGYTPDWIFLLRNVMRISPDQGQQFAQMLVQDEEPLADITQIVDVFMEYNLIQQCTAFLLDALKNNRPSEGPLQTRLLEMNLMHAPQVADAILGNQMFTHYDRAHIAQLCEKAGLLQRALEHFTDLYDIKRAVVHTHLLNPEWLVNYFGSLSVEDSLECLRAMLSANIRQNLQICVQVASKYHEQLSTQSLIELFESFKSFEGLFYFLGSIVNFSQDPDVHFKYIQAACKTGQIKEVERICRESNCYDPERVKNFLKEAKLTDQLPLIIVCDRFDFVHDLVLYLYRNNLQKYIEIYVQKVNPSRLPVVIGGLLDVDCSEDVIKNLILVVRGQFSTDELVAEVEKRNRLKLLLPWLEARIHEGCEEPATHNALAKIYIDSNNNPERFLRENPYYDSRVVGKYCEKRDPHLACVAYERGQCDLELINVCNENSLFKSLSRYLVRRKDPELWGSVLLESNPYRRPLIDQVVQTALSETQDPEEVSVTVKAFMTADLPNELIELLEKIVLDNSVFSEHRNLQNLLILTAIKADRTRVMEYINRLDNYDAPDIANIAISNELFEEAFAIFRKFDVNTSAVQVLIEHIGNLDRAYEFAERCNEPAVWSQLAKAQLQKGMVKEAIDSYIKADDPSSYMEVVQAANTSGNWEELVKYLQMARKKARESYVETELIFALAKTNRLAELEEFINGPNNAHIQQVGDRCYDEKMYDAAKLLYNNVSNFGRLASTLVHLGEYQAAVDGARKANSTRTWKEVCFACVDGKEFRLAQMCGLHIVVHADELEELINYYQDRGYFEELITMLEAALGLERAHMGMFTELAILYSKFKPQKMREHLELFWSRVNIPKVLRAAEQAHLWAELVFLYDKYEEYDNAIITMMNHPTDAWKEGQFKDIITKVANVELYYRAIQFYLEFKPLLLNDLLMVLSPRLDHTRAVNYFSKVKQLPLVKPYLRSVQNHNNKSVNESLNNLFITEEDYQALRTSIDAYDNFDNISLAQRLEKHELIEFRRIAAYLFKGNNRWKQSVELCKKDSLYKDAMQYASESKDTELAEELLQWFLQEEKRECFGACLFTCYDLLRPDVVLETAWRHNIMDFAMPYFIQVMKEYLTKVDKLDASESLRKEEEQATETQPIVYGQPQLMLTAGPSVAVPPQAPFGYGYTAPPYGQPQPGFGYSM
Assay [12] has as its target PF-7802-labelled proteins in ARPE-19 cells (Homo sapiens, UniProt Q14108).
Sequence of UniProt Q14108 (Q14108 whole entry): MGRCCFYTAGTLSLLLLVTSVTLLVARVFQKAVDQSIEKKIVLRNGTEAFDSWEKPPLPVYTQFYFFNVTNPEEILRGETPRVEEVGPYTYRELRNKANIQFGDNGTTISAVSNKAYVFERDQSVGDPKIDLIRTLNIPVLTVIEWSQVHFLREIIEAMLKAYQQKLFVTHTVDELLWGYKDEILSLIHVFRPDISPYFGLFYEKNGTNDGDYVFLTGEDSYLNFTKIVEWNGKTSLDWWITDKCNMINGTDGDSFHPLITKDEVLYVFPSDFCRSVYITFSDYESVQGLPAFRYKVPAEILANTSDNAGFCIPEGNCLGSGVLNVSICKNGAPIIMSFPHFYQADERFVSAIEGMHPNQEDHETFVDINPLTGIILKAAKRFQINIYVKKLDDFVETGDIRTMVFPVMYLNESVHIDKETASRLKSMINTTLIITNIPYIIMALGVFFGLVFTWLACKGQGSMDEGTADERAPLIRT
Assay [13] has as its target PF-7802-labelled proteins in ARPE-19 cells (Homo sapiens, UniProt Q71UI9). The conditions noted are these: Q71UI9 H2AFV Histone H2A.V.
Assay [14] concerns the target PF-7802-labelled proteins in ARPE-19 cells (Homo sapiens, UniProt Q9H7M9). To be noted: protein C10orf54 Platelet receptor Gi24 (Q9H7M9).
Assay [15] has as its target PF-7802-labelled proteins in ARPE-19 cells (Homo sapiens, UniProt Q9Y277). The conditions noted are these: VDAC3 Voltage-dependent anion-selective channel protein 3 (Q9Y277).
Assay [16] has as its target PF-7802-labelled proteins in ARPE-19 cells (Homo sapiens, UniProt P13637). The conditions noted are these: protein ATP1A3 Sodium/potassium-transporting ATPase subunit alpha-3 (P13637).
Assay [17] deals with PF-7802-labelled proteins in ARPE-19 cells (Homo sapiens, UniProt P13987). To be noted: protein CD59 CD59 glycoprotein (P13987).
In assay [18] the target is PF-7802-labelled proteins in ARPE-19 cells (Homo sapiens, UniProt P61204). To be noted: protein ARF3 ADP-ribosylation factor 3 (P61204).
Sequence of UniProt P61204 (P61204 whole entry): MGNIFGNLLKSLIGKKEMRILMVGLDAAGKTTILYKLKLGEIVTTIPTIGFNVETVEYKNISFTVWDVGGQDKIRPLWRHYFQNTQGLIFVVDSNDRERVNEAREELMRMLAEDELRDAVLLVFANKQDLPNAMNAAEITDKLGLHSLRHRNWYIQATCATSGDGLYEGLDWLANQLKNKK
Assay [19] has as its target PF-7802-labelled proteins in ARPE-19 cells (Homo sapiens, UniProt P61916). To be noted: protein NPC2 Epididymal secretory protein E1 (P61916); replicates in separate columns.
In assay [20] the target is PF-7802-labelled proteins in ARPE-19 cells (Homo sapiens, UniProt P62081). To be noted: protein RPS7 40S ribosomal protein S7, P62081.
Assay [21] has as its target PF-7802-labelled proteins in ARPE-19 cells (Homo sapiens, UniProt P80723). The conditions noted are these: protein BASP1 Brain acid soluble protein 1 (P80723).
Sequence of UniProt P80723 (P80723 whole entry): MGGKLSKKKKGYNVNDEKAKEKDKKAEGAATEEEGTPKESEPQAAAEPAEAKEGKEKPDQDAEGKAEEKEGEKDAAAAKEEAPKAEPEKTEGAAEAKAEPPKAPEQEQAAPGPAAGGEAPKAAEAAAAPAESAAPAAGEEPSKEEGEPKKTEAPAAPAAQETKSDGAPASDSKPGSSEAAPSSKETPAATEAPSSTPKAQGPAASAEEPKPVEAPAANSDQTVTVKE
Assay [22] has as its target PF-7802-labelled proteins in ARPE-19 cells (Homo sapiens, UniProt Q03252). The conditions noted are these: protein LMNB2 Lamin-B2 (Q03252); replicates in separate columns.
The target of assay [23] is PF-7802-labelled proteins in ARPE-19 cells (Homo sapiens, UniProt Q13310). The conditions noted are these: protein PABPC4 Polyadenylate-binding protein 4 (Q13310); replicates in separate columns.
The target of assay [24] is PF-7802-labelled proteins in ARPE-19 cells (Homo sapiens, UniProt Q53TN4). The conditions noted are these: protein CYBRD1 Cytochrome b reductase 1 (Q53TN4).
Sequence of UniProt Q53TN4 (Q53TN4 whole entry): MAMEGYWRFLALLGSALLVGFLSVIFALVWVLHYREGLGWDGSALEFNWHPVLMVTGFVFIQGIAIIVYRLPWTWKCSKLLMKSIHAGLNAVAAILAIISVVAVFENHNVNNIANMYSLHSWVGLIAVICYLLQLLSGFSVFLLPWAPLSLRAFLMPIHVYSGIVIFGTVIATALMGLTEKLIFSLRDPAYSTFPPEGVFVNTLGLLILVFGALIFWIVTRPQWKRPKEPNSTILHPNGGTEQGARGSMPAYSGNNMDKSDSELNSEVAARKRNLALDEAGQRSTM
The target of assay [25] is PF-7802-labelled proteins in ARPE-19 cells (Homo sapiens, UniProt Q8IZL8). The conditions noted are these: protein PELP1 Proline-, glutamic acid- and leucine-rich protein 1 (Q8IZL8); replicates in separate columns.
Sequence of UniProt Q8IZL8 (Q8IZL8 whole entry): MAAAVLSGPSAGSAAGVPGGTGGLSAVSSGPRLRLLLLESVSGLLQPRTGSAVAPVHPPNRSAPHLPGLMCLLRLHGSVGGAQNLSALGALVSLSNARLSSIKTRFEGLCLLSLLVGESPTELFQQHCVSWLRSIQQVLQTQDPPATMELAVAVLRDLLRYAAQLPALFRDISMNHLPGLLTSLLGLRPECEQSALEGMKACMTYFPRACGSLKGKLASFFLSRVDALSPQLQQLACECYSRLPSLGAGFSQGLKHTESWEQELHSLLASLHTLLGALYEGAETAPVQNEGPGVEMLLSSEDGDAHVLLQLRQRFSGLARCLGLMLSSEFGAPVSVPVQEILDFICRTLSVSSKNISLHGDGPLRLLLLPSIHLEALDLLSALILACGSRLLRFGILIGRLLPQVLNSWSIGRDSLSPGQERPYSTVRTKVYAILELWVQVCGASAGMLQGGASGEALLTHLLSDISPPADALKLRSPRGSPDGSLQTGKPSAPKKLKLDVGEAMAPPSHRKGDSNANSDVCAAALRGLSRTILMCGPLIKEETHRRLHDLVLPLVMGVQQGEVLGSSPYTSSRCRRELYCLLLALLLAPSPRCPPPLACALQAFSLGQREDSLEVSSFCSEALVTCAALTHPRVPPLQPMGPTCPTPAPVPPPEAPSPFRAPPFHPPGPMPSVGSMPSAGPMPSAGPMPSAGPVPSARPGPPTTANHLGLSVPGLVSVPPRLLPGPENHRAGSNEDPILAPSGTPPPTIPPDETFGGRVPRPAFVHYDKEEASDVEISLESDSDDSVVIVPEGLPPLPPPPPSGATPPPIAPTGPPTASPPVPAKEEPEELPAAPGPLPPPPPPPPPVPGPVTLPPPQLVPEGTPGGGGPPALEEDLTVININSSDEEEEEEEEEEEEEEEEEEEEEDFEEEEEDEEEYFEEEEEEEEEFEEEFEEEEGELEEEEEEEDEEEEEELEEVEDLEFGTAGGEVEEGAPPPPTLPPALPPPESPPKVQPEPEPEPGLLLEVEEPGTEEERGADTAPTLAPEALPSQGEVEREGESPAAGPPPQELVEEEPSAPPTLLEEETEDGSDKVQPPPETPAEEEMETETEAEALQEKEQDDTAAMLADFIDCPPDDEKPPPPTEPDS
Assay [26] addresses PF-7802-labelled proteins in ARPE-19 cells (Homo sapiens, UniProt Q9Y4L1). To be noted: protein HYOU1 Hypoxia up-regulated protein 1 (Q9Y4L1); one column per replicate.

Several values for one entry are separate records, joined by “and”; a condition that tells them apart may be missing. Identical values can stand only once.

Sequence of UniProt O95292 (O95292 whole entry): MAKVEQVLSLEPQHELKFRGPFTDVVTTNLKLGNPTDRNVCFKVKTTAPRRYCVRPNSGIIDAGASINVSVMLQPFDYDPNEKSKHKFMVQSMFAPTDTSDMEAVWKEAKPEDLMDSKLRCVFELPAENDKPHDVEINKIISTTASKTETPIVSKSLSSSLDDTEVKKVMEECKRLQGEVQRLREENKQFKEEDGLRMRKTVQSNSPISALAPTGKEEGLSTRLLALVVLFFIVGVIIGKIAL

Turning to `CNC1CCN(C(=O)C[C@@H](Cc2ccccc2)C(=O)N[C@@H](CSC)C(=O)N[C@@H](CC2CCCCC2)[C@@H](O)C(=O)OC(C)C)CC1` [CP-108671, reference compound], the “Median SILAC Ratio (Heavy/Light)” value in [1] worked out at 1.521; in assay [2], 1.044; in assay [3], 0.7987; in assay [4] (protein HSP90AA1 Heat shock protein HSP 90-alpha (P07900), one column per replicate), 1.922; in assay [5] (protein HSP90AB1 Heat shock protein HSP 90-beta (P08238), one column per replicate), 1.922; in assay [7], 6.367. The “Median SILAC Ratio (Heavy/Light)” value in assay [8] is 1.363; in assay [9] (protein ACADVL Very long-chain specific acyl-CoA dehydrogenase, mitochondrial (P49748)), 1.64 and 0.8526; in assay [10], 1.043; in assay [11] (protein CLTC Clathrin heavy chain 1 (Q00610)), 1.312; in [12] (protein SCARB2 Lysosome membrane protein 2, Q14108), 1.354 and 0.8603; in [14] it was 0.9313. Further, the “Median SILAC Ratio (Heavy/Light)” value in assay [15] is reported as 1.255. For the same compound, the “SILAC ratio (DMSO/CP-108671)” value stood at 0.52 in assay [4] (P07900 HSP90AA1 Heat shock protein HSP 90-alpha); 0.52 in assay [5] (P08238 HSP90AB1 Heat shock protein HSP 90-beta); 0.98 in [6]; 0.95 in assay [9] (P49748 ACADVL Very long-chain specific acyl-CoA dehydrogenase, mitochondrial); 0.76 in assay [11] (Q00610 CLTC Clathrin heavy chain 1); 1.16 in assay [12] (Q14108 SCARB2 Lysosome membrane protein 2). In addition, the “SILAC ratio (DMSO/CP-108671)” value in assay [13] worked out at 0.98.

For `Cc1cc([C@H]2C[C@H]3[C@@H](C)SC(N)=N[C@@]3(c3ccc(F)cc3F)CO2)on1` [PF-9283], the “Median SILAC Ratio (Heavy/Light)” value was 1.878 in assay [16]; 0.853 in [17]; 0.6905 and 0.7654 in assay [18]; 0.6963 and 0.7218 and 1.705 in assay [19]; 1.536 in assay [20]; 0.9316 in assay [21]. The “Median SILAC Ratio (Heavy/Light)” value in assay [22] turned out to be 1.184; in assay [23], 0.6783; in assay [24], 194.384; in assay [25], 1.084; in [26], 0.7694.
